Changes are numbered by the printed parent chain; changes in the protein carry UniProt numbers. The list shows a part of the results.
T1: RBFOX1 RRM (Homo sapiens, UniProt Q9NWB1 109-208)
T1 sequence: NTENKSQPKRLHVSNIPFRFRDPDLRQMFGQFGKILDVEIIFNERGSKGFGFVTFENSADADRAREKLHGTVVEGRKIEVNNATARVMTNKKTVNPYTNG

B1: GUGCGUC (DNA:RNA)
RNA: GGGAGACCGGAAUUCAGAUUGUCCGUGCGUCUUAAAUCCCGUCGUAGCCACCA
DNA 1: CAATCTGAATTCCGGTCTCCC
DNA 2: TGGTGGCTACGACGGGATT
B2: UGUCUGA (DNA:RNA)
RNA: B1 RNA with G25U, U26G, G27U, G29U, U30G, C31A
DNA 1: CAATCTGAATTCCGGTCTCCC
DNA 2: TGGTGGCTACGACGGGATT
B3: AUAGGAU (DNA:RNA)
RNA: B1 RNA with G25A, G27A, C28G, U30A, C31U
DNA 1: CAATCTGAATTCCGGTCTCCC
DNA 2: TGGTGGCTACGACGGGATT
B4: CAUCCAA (DNA:RNA)
RNA: B1 RNA with G25C, U26A, G27U, G29C, U30A, C31A
DNA 1: CAATCTGAATTCCGGTCTCCC
DNA 2: TGGTGGCTACGACGGGATT
B5: CAAACGG (DNA:RNA)
RNA: GGGAGACCGGAAUUCAGAUUGUCCCAAACGGUUAAAUCCCGUCGUAGCCACCA
DNA 1: CAATCTGAATTCCGGTCTCCC
DNA 2: TGGTGGCTACGACGGGATT
B6: GGGAGCU (DNA:RNA)
RNA: B1 RNA with U26G, C28A, U30C, C31U
DNA 1: CAATCTGAATTCCGGTCTCCC
DNA 2: TGGTGGCTACGACGGGATT
B7: GUCAGCA (DNA:RNA)
RNA: B1 RNA with G27C, C28A, U30C, C31A
DNA 1: CAATCTGAATTCCGGTCTCCC
DNA 2: TGGTGGCTACGACGGGATT
B8: CGUUAGG (DNA:RNA)
RNA: B5 RNA with A26G, A27U, A28U, C29A
DNA 1: CAATCTGAATTCCGGTCTCCC
DNA 2: TGGTGGCTACGACGGGATT
B9: CGGCGCA (DNA:RNA)
RNA: B1 RNA with G25C, U26G, U30C, C31A
DNA 1: CAATCTGAATTCCGGTCTCCC
DNA 2: TGGTGGCTACGACGGGATT
B10: AUCCGUU (DNA:RNA)
RNA: B1 RNA with G25A, G27C, C31U
DNA 1: CAATCTGAATTCCGGTCTCCC
DNA 2: TGGTGGCTACGACGGGATT
B11: GAUUCGC (DNA:RNA)
RNA: B5 RNA with C25G, A27U, A28U, G31C
DNA 1: CAATCTGAATTCCGGTCTCCC
DNA 2: TGGTGGCTACGACGGGATT
B12: GCGGCAU (DNA:RNA)
RNA: B1 RNA with U26C, C28G, G29C, U30A, C31U
DNA 1: CAATCTGAATTCCGGTCTCCC
DNA 2: TGGTGGCTACGACGGGATT
B13: AGAGAAG (DNA:RNA)
RNA: B5 RNA with C25A, A26G, A28G, C29A, G30A
DNA 1: CAATCTGAATTCCGGTCTCCC
DNA 2: TGGTGGCTACGACGGGATT
B14: UUAUUUG (DNA:RNA)
RNA: B5 RNA with C25U, A26U, A28U, C29U, G30U
DNA 1: CAATCTGAATTCCGGTCTCCC
DNA 2: TGGTGGCTACGACGGGATT
B15: GGGGGUG (DNA:RNA)
RNA: B1 RNA with U26G, C28G, C31G
DNA 1: CAATCTGAATTCCGGTCTCCC
DNA 2: TGGTGGCTACGACGGGATT
B16: UGGUUCC (DNA:RNA)
RNA: B1 RNA with G25U, U26G, C28U, G29U, U30C
DNA 1: CAATCTGAATTCCGGTCTCCC
DNA 2: TGGTGGCTACGACGGGATT
B17: UGCGGCA (DNA:RNA)
RNA: B1 RNA with G25U, U26G, G27C, C28G, U30C, C31A
DNA 1: CAATCTGAATTCCGGTCTCCC
DNA 2: TGGTGGCTACGACGGGATT
B18: GUGAGUC (DNA:RNA)
RNA: B1 RNA with C28A
DNA 1: CAATCTGAATTCCGGTCTCCC
DNA 2: TGGTGGCTACGACGGGATT
B19: GAAAUGA (DNA:RNA)
RNA: B5 RNA with C25G, C29U, G31A
DNA 1: CAATCTGAATTCCGGTCTCCC
DNA 2: TGGTGGCTACGACGGGATT
B20: GAGGGCG (DNA:RNA)
RNA: B1 RNA with U26A, C28G, U30C, C31G
DNA 1: CAATCTGAATTCCGGTCTCCC
DNA 2: TGGTGGCTACGACGGGATT
B21: CGACUUA (DNA:RNA)
RNA: B5 RNA with A26G, A28C, C29U, G30U, G31A
DNA 1: CAATCTGAATTCCGGTCTCCC
DNA 2: TGGTGGCTACGACGGGATT
B22: CGUUCGC (DNA:RNA)
RNA: B5 RNA with A26G, A27U, A28U, G31C
DNA 1: CAATCTGAATTCCGGTCTCCC
DNA 2: TGGTGGCTACGACGGGATT
B23: CGGACUA (DNA:RNA)
RNA: B5 RNA with A26G, A27G, G30U, G31A
DNA 1: CAATCTGAATTCCGGTCTCCC
DNA 2: TGGTGGCTACGACGGGATT
B24: CUGGAGC (DNA:RNA)
RNA: B1 RNA with G25C, C28G, G29A, U30G
DNA 1: CAATCTGAATTCCGGTCTCCC
DNA 2: TGGTGGCTACGACGGGATT
B25: GCUCAAU (DNA:RNA)
RNA: B1 RNA with U26C, G27U, G29A, U30A, C31U
DNA 1: CAATCTGAATTCCGGTCTCCC
DNA 2: TGGTGGCTACGACGGGATT
B26: AGUCUUA (DNA:RNA)
RNA: B1 RNA with G25A, U26G, G27U, G29U, C31A
DNA 1: CAATCTGAATTCCGGTCTCCC
DNA 2: TGGTGGCTACGACGGGATT
B27: AAGACUA (DNA:RNA)
RNA: B5 RNA with C25A, A27G, G30U, G31A
DNA 1: CAATCTGAATTCCGGTCTCCC
DNA 2: TGGTGGCTACGACGGGATT
B28: CCUCCUG (DNA:RNA)
RNA: B5 RNA with A26C, A27U, A28C, G30U
DNA 1: CAATCTGAATTCCGGTCTCCC
DNA 2: TGGTGGCTACGACGGGATT
B29: CCGAUGG (DNA:RNA)
RNA: B5 RNA with A26C, A27G, C29U
DNA 1: CAATCTGAATTCCGGTCTCCC
DNA 2: TGGTGGCTACGACGGGATT
B30: UGCUCGG (DNA:RNA)
RNA: B5 RNA with C25U, A26G, A27C, A28U
DNA 1: CAATCTGAATTCCGGTCTCCC
DNA 2: TGGTGGCTACGACGGGATT
B31: AGCAUCU (DNA:RNA)
RNA: B5 RNA with C25A, A26G, A27C, C29U, G30C, G31U
DNA 1: CAATCTGAATTCCGGTCTCCC
DNA 2: TGGTGGCTACGACGGGATT

These binders were tested against T1, RBFOX1 RRM (assay: EMSA; HiTS-Eq, 1 nM pool, 10 min; buffer printed only for the single-RNA assays: 10 mM Tris pH 7.5, 150 mM NaCl, 3.4 mM EDTA, 0.001% NP-40, 30 C). Settings: tags: His6 N-terminal (pET28a); label: 5' 32P.
Summary of the method: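 A pool of RNA with 7 randomized nucleotides, 5′-radiolabelled and with DNA-annealed flanks, was equilibrated at 1 nM for 10 min in 50 µL with purified RbFox RRM, wild type or mutant, across increasing protein concentrations. Free RNA was separated by 8% native PAGE, excised, reverse-transcribed, barcoded by PCR and sequenced. Relative association constants were obtained from read-count changes of each RNA species versus the control reaction and normalised to the cognate motif.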

Binder	binding signal
B1	0.0205 KA relative to UGCAUGU
B2	0.0256 KA relative to UGCAUGU
B3	0.00437 KA relative to UGCAUGU
B4	0.000478 KA relative to UGCAUGU
B5	0.00338 KA relative to UGCAUGU
B6	0.035 KA relative to UGCAUGU
B7	0.0129 KA relative to UGCAUGU
B8	0.0105 KA relative to UGCAUGU
B9	0.0121 KA relative to UGCAUGU
B10	0.00347 KA relative to UGCAUGU
B11	0.0154 KA relative to UGCAUGU
B12	0.0242 KA relative to UGCAUGU
B13	0.00984 KA relative to UGCAUGU
B14	0.0189 KA relative to UGCAUGU
B15	0.0397 KA relative to UGCAUGU
B16	0.0214 KA relative to UGCAUGU

Binder	binding signal
B17	0.0296 KA relative to UGCAUGU
B18	0.0134 KA relative to UGCAUGU
B19	0.0134 KA relative to UGCAUGU
B20	0.0175 KA relative to UGCAUGU
B21	0.00583 KA relative to UGCAUGU
B22	0.0165 KA relative to UGCAUGU
B23	0.0159 KA relative to UGCAUGU
B24	0.0152 KA relative to UGCAUGU
B25	0.00854 KA relative to UGCAUGU
B26	0.00517 KA relative to UGCAUGU
B27	0.00396 KA relative to UGCAUGU
B28	0.0157 KA relative to UGCAUGU
B29	0.0149 KA relative to UGCAUGU
B30	0.0361 KA relative to UGCAUGU
B31	0.0119 KA relative to UGCAUGU

From publication PMC9911399, “Two distinct binding modes provide the RNA-binding protein RbFox with extraordinary sequence specificity”
